Some of the results follow.

In this experiment the test system is PfHDP1 homeodomain (GST-tagged). The experiment in a line: gcPBM binding intensity (ln(normalized median fluorescence intensity)); higher = stronger DNA binding. The method in brief:
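After 1 h on an Agilent 4 × 180k array of primer-extended double-stranded 36-bp intergenic genomic probes and negative controls, bound GST-tagged P. falciparum DNA-binding domains were detected with Alexa488 anti-GST antibody and scanned at 488 nm. The domains had been expressed in E. coli, and binding took place in 1× PBS with 1% milk, 0.2 mg/ml BSA, 0.5% salmon testes DNA and 0.03% Triton X-100. Binding intensity is the highest Masliner-normalised natural-log median intensity across replicate spots of either probe orientation.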
Regarding TAATAAATGTTATTAGTGCATAATAGATAATATATT, the “gcPBM binding intensity (ln)” value amounted to 9.6.
On to “TATTCGAACAAAAATACATGCACATATGCATAATAA [TGCATGCA_site171]”, for which the “gcPBM binding intensity (ln)” value came out at 10.
The value for “TTTTCCAGTAAATATTTTTTTATAATATTTATATAT [CACACA_negctrl_site387]” was 6.36.
The same measure for “AGCCACTTAAAATACACACACACCAAAAAAAAAAAA [CACACA_site5497]”: 6.84; for “TATTTTATTTATTGAAGTACATTATACAAAAATAAA [XGTACX_site4824]”: 6.3; for “TACATATATATAATATGTACTTATAATATGTATTTA [XGTACX_site2162]”: 5.96.
For “TTATTTGTTTGTTGGATGCTTTTTTTTTTTTTTTTT [CACACA_negctrl_site1697]”, the “gcPBM binding intensity (ln)” value turned out to be 6.59.
The value for “AAAAGTGATAATAAGAGTACATAAAAAATTTATTAT [XGTACX_site8037]” was 6.31.
The same measure for “ATTTCCCACTTGTGTGTGCGCATGTGTATATATTTA [GTGCAC_site9949]”: 7.35.
The value for “TATTCTATACTATATTGTACTATAATATAATATACT [XGTACX_site797]” was 6.45.
For the sequence “AATGAAAAAAAAAAAAAAAAGAAGAAGCAAATGGTA [TGCATGCA_negctrl_site335]”, the “gcPBM binding intensity (ln)” value is 6.55.
With “ATAAATAATTATATATGTACACATTATGAATGGATA [XGTACX_site8336]”, the “gcPBM binding intensity (ln)” value came out at 6.74.
With “AGATTATTTGGACATGCATGTAAAAAAATACGTATA [TGCATGCA_site972]”, the “gcPBM binding intensity (ln)” value is 6.73.
As for “TCTTCATATGTTTACTGTACGAGAAAAAAAAAAAAA [XGTACX_site6418]”, the “gcPBM binding intensity (ln)” value was 6.8.
The same measure for “TATGTGTATTTATTTGCATGTTGGTTGTATTTTTTC [TGCATGCA_site479]”: 6.94; for “TAATAAAATAAAAATTGTACATTTTATATTTATCAA [XGTACX_site5134]”: 6.1; for “TAGAAACCATAAAAATGTACTTAAAAATAGACAATT [XGTACX_site5007]”: 6.1.
With “TCTGAAATTTTAGGGGTGCCTGGGACTAAAGAAACG [GTGCAC_site9785]”, the “gcPBM binding intensity (ln)” value turned out to be 6.23.
The same measure for “AAGAACAGATAAAATCGTACGTGAAACATGAACTTG [XGTACX_site7793]”: 6.34.
As for “ATACATAAATATTATTGTACATATATAATATTAATA [XGTACX_site3514]”, the “gcPBM binding intensity (ln)” value came out at 6.23.
The value for “TTTAATTCCCATATATGTACACAATTTCTTCTATAA [XGTACX_site1465]” was 6.9; that for “AGACTTTTTATGAGCACACACATATATTATGGAGTA [CACACA_site1040]” was 7.19; that for “ATAAATTCATTATATTGTACAAACAAATGAAAAAAA [XGTACX_site8304]” was 6.5.
As to “AAAATTCATCCAACAAGTACATAAATATAATATTAT [XGTACX_site4596]”, the “gcPBM binding intensity (ln)” value is 6.51.
The value for “AAAATATTTAAGCATTGTACATATTTTTACAAATAC [XGTACX_site5349]” was 6.22.
For “GGAAAAAGAAATTAATGTACATGTGGATGTATGAGG [XGTACX_site5468]”, the “gcPBM binding intensity (ln)” value was determined as 6.58.
The value for “CTACACAAGCATTAAACACACAAAAGGGATACTTTG [CACACA_site1083]” was 6.55; that for “ATTCAAAAAAATAAAATAAACATAAATAAACATAAA [TGCATGCA_negctrl_site390]” was 6.79.
The value for “ATTTTTACTTTTTATGCATGCTATATTTTCAACCAT [TGCATGCA_site871]” was 7.45.
The value for “ATTTTTTTTTTTTTATGTACATATTAAAAAAAATAT [XGTACX_site1829]” was 6.46; that for “GGTATTACTTTTAGCTGTACTTATTTAAAAGTCAAA [XGTACX_site530]” was 6.51.
Consider “TATACATGTTCAATTTGTACATATATAAATATATAT [XGTACX_site3554]”, for which the “gcPBM binding intensity (ln)” value came to 6.46.
“ATTAAGGAAAAATTATGTACACAAAAACATATAACA [XGTACX_site2901]”: the “gcPBM binding intensity (ln)” value worked out at 7.51.
The same measure for “TTTTTTTTTTGATGTTGTACATATATATTATATATA [XGTACX_site6377]”: 6.58.
Consider “TTTTTTTTTTTTTTTTGTACATATTTTTAAACTATA [XGTACX_site2897]”, for which the “gcPBM binding intensity (ln)” value is 6.24.
The value for “AGATATATGGACGACTCACACATTTAAATTCATTCA [CACACA_site6047]” was 6.59; that for “CTTTCATATGTTTTAACACACACGCATATATTATAT [CACACA_site8615]” was 7.38; that for “TTTTTTTTTTTGATTTGTACACAAAAAAAATATATG [XGTACX_site4547]” was 6.24.
The same measure for “ATCTATGATATATACACACACATGTATAAATAAATA [CACACA_site7012]”: 6.51; for “TAATTTTTTTTTCTTGTACACACTATTTTATAATTT [CACACA_site4078]”: 6.68; for “ATTTATTTGTTTGTTTTTTTTACGATTTTTATTTTT [CACACA_negctrl_site1138]”: 6.7.
Take “CGTATTTATATAATTACACACCATATTTTAATTATT [CACACA_site5960]”: the “gcPBM binding intensity (ln)” value came out at 6.66.
Take “ATAAACAATTAACAAACATGCAAATTTTAAATGTGT [TGCATGCA_site919]”: the “gcPBM binding intensity (ln)” value amounted to 6.42.
Consider “TATCGAGCACGGCGTGTGGAGTTACAAAGAGGAGAA [CACACA_negctrl_site40]”, for which the “gcPBM binding intensity (ln)” value is 6.86.
The same measure for “AAATGTATAATATTTTCACACACAAGAAAAAAGAAA [CACACA_site9195]”: 6.57; for GCCAATAAAGATGTGGTGCATTATATATATATATAT: 10.7.
The same measure for “TAAAAATAGTATACAACACACGAGGGAAAATAAAGT [CACACA_site3837]”: 7.68.
For the sequence “TAAACATACATATACACACACACACCCACACCCACA [CACACA_site492]”, the “gcPBM binding intensity (ln)” value is 6.77.
The same measure for “TGTCCTTATGGGCACACACACATATAAGAAATTTAA [CACACA_site3187]”: 6.53.
As to “CTTCTTATTTTCTAATGTACGTACAAATCATTTATA [XGTACX_site2176]”, the “gcPBM binding intensity (ln)” value came to 7.28.
The same measure for “ATATTTATATATATGTGTACATATAGAAACATAAAA [XGTACX_site4355]”: 6.38.
Regarding “TTTTTTTTTTTAATTTGTACGAATCTTTTTATTTTA [XGTACX_site4516]”, the “gcPBM binding intensity (ln)” value came out at 6.25.
Regarding “AGAAATGAAATATACACACATACATATATACATATA [CACACA_site4033]”, the “gcPBM binding intensity (ln)” value is 6.5.
“ACCCTCATATTATAGACACACACAAAAAAAATAAAA [CACACA_site7941]”: the “gcPBM binding intensity (ln)” value stood at 6.66.
The same measure for “ATTAATAATGAGTTATGTACATACATATTTTAAGAT [XGTACX_site7543]”: 6.75; for “TAAATACACCCTAGACGTACATAAAAATTTAGTATG [XGTACX_site2512]”: 6.37; for “CAAAATATATATACCACACACACATACCTCTATTTG [CACACA_site1853]”: 6.78.
The same measure for “ATATATTTTTTCTTAACACACATATATAAAATAAAA [CACACA_site3500]”: 6.42.
The value for “CACGCGAACATACATACACACACATATATATATATG [CACACA_site7951]” was 7.18; that for “TATATATATATATACACACACACACCGATATATATA [CACACA_site8813]” was 9.29.
As to “TATATAAAAAAACAAAGTACATGTTCTTAATCATTT [XGTACX_site8446]”, the “gcPBM binding intensity (ln)” value stood at 6.31.
Turning to “AAATGAACAAGTGGCACACACACATCATAACTAATT [CACACA_site5730]”, the “gcPBM binding intensity (ln)” value turned out to be 6.52.
The same measure for “ATAATATAAATATGCACACAAATTATTACCCAAAAA [CACACA_site2524]”: 9.6; for “GTTATATTCCTACAGAGTACATAAAAATGCACATCA [XGTACX_site1948]”: 9.23.
The value for “AAATATAATATATGCACACATACATACAGATATATA [CACACA_site4235]” was 9.5.
The value for “ATAAATATAGGACACACACACATATTATATATATAT [CACACA_site5658]” was 8.53; that for “TATTTCATGATACAATGTACATGTATATATGATACC [XGTACX_site5057]” was 6.64.
Consider “AATAATATATATTACACACGCATCGTTCATTTATTT [CACACA_site2391]”, for which the “gcPBM binding intensity (ln)” value stood at 7.15.
The value for “TTGCCCATTTAATTAACACACAAATGTTTATATTCT [CACACA_site6488]” was 6.86.
The same measure for “TTTGAAATAAGCAAATGTACATTATTATTAAATATA [XGTACX_site6158]”: 6.48.
The same measure for “TTCACATACAGAAACACACACATATATATAAATTAA [CACACA_site3705]”: 6.68; for TGTATGATAACTATAGTGCATTTGGTAATTTTTCCA: 8.53.
Consider “TCCATAAAAATGGATACACACACATAATATATATAT [CACACA_site9207]”, for which the “gcPBM binding intensity (ln)” value was determined as 8.28.
The same measure for “TATAATATAAGGATCACACACAAACACCCATATATA [CACACA_site4468]”: 6.86; for “TTAATAACAAAATAAACACACATATATAAATACCCA [CACACA_site4960]”: 6.83; for “CATACATACATACATACACACATACCTATATTTATA [CACACA_site6769]”: 7.48.
The value for “ATATATACATATATTACACACTTCTTATTCTAAGAA [CACACA_site3022]” was 6.48; that for “CTAGCAAATACATACACACACACACCGATACAGATA [CACACA_site5853]” was 6.67.
Consider “AACGCGAACAATTTATAGATAACTTTTAATTATTAT [GTGCAC_negctrl_site179]”, for which the “gcPBM binding intensity (ln)” value was 5.97.
The same measure for “ATATATATATTTGTGTGTACATATTAATTTGTATGA [XGTACX_site4047]”: 8.08; for “ATGGTATATCCAAATAAACACACGTAAATACATAAA [CACACA_site1682]”: 6.83; for “ATACATTTTTGTAAAAGTACATATACATGCCCCCTT [XGTACX_site1367]”: 7.68.
The value for “AATATATATATAGGATGTACACATAATTCAAATACA [XGTACX_site6368]” was 6.92.
For “TATATATATATAAACTGTACTATTTTATGTTAAAAG [XGTACX_site3630]”, the “gcPBM binding intensity (ln)” value was 9.03.
The value for “ATTTAATACAAATACACACACAAATATATACATATA [CACACA_site3747]” was 6.87.
With “AGATATTAAAACGTTACACACATTTATATATCTTCT [CACACA_site908]”, the “gcPBM binding intensity (ln)” value came out at 6.48.
Turning to “GTAAGTTTGAATACACGTACAAATTTATTAAAGTCC [XGTACX_site6722]”, the “gcPBM binding intensity (ln)” value was determined as 6.84.
In the case of “TTCCAAAATTGCATTTGTACCCAAAAAATGTATACG [XGTACX_site7680]”, the “gcPBM binding intensity (ln)” value was found to be 6.56.
With “ATATTATTAATTTATAGTACTCATTTTTTTTTTTTT [XGTACX_site3536]”, the “gcPBM binding intensity (ln)” value stood at 6.4.

The record behind these values is the supplement of paper PMC11417369.
